# Inconclusive results, whose numbers are uncertain, are shown with a selection of clear calls. For some of these results: A potency beside an inconclusive call is a rough fit, not a confirmed value. For some of these results: “Side channel” marks fits to a control or component signal instead of the main read-out. Calls of active or inactive are those of the source. Unless noted, calls come from the whole dose curve; as a rule, active = well fitted curve in the direction sought with a large enough effect; inconclusive = small, poorly fitted or top-dose-only effect, or another doubt; inactive = no such curve, though single readings can be large; an effect the other way counts as inactive or inconclusive.
# Assays:
# [1] = molecular target: Thioredoxin reductase 1, cytoplasmic (Rattus norvegicus) (UniProt O89049); test: qHTS Assay for Inhibitors of Mammalian Selenoprotein Thioredoxin Reductase 1 (TrxR1) (AID 488773); details: Potency: inhibition; note: nearly all actives have a fitted effect of over 40% in size;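 for activity change, negative = inhibition: drop in NADPH fluorescence over an 8 min run after selenite addition; % is set by controls: 0 for no effect and ±100 for the full control effect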
# In short: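 Steps: enzyme (90 nM) plus NADPH (400 uM final), 5 min at ~22 deg C; compound added, 15 min; selenite (400 uM final) added; fluorescence followed for 8 min. Concentration-response curves derived from the normalized delta values.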
# [2] = molecular target: Peptidyl-prolyl cis-trans isomerase NIMA-interacting 1 (Homo sapiens) (UniProt Q13526); test: qHTS Validation Assay to Find Inhibitors of Pin1 (AID 504536; active = well fitted inhibition curve with a large enough effect in the polarisation, with a control signal flat, not every such curve was filed as active; inconclusive = small, poorly fitted or top-dose-only effect, or effect the other way; the % refers to the polarisation)
# In short: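 Fluorescence polarization competition: compounds (titration) displace HiFluor-488-labeled Pin1-1b peptide from Pin1 (0.3 uM final) in pH 7.5 HEPES buffer with DTT, 10 min at room temperature; %Activity normalized to no-enzyme wells, curves fitted.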
# [3] = molecular target: Papain (Carica papaya) (UniProt P00784); test: Primary qHTS assay for inhibitors of the protease papain (AID 1645873);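 note: papain turnover of Z-FR-AMC read as the AMC fluorescence gain over 10 min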
# [4] = Cytometric Cell-Based qHTS for Inhibitors of the mTORC1 Signaling Pathway in MEF (Tsc2-/-, p53-/-) Cells (AID 2660)
# In short: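 Immunofluorescence qHTS of rpS6 Ser235/236 phosphorylation: MEFs (Tsc2-/-, p53-/-) treated 24 h, 37 C, in DMEM + 10% FBS. Alexa-488 signal normalized to PI count, referenced to rapamycin (7.5 nM) and DMSO; PI cell number recorded for viability.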
# [5] = qHTS Assay for Identification of Small Molecule Antagonists for NFkB Signaling Pathway (AID 895; active = well fitted inhibition curve with a large enough effect in the signal ratio, with a control signal flat, not every such curve was filed as active; inconclusive = small, poorly fitted or top-dose-only effect, or effect the other way, or a change in a side signal; the % refers to the signal ratio; for activity change, negative = inhibition: % is set by controls: 0 for no effect and ±100 for the full control effect); details: NFkB beta-lactamase reporter cells, FRET ratio 460/530, stimulated with 10 pM TNF alpha; activity change, negative = inhibition: at 38.3 µM (top of the series)
# In short: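 Beta-lactamase reporter read-out (460 and 530 nm emission ratio, 405 nm excitation, 2 hrs substrate loading RT) after 5 hr stimulation with 10 pM TNF alpha in compound-treated NFkB-bla ME-180 cells in low-serum medium.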
# [6] = qHTS Assay for Identification of Small Molecule Antagonists for Thrombopoietin (TPO) Signaling Pathway (AID 918); details: TPO-dependent cell signaling reporter, antagonist mode; activity change, negative = inhibition: at 38.5 µM (top of the series); note: nearly all actives have a fitted effect of over 60% in size
# In short: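 Murine Ba/F3 cells expressing human TPO receptor and a Glycoprotein IIb promoter-luciferase reporter, IL-3-starved overnight, treated with compound plus TPO at EC50 (26 pM final). After 24 h at 37 C, luminescence read to detect inhibitors.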
# [7] = molecular target: Muscarinic acetylcholine receptor M1 (Rattus norvegicus) (UniProt P08482); test: qHTS Assay for Antagonists of Acetylcholine Muscarinic M1 Receptor: Measurement of IP-One Response (AID 944); note: nearly all actives have a fitted effect of over 75% in size
# [8] = qHTS for differential inhibitors of proliferation of Plasmodium falciparum line D10 (AID 1877);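 note: parasites grown with compound for 72 h before DNA staining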
# [9] = qHTS for differential inhibitors of proliferation of Plasmodium falciparum line Dd2 (AID 1882); details: Potency: Plasmodium falciparum Dd2 proliferation inhibition; note: nearly all actives have a fitted effect of over 65% in size
# In short: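 Dd2-infected erythrocytes (0.3% parasitemia, 2.5% hematocrit final) incubated with compound 72 h at 37 C, 5% CO2; lysed with saponin/Triton buffer containing SYBR Green I, incubated overnight in the dark, then read by fluorescence (485/535 nm). Normalized to 0.29 uM artemisinin and DMSO.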
# [10] = molecular target: Ferritin light chain (Equus caballus) (UniProt P02791); test: qHTS Validation Assay for Identification of Novel General Anesthetics (AID 2323)
# In short: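 Normalized fluorescence response, scaled between free 1-AMA and 1-AMA/apoferritin complex, fitted to a four-parameter Hill equation for concentration-effect values. Binding mix: 10 uM horse-spleen apoferritin, 50% saturated 1-AMA in PBS; read 380/535 nm after 10 min.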
# [11] = molecular target: D(1A) dopamine receptor (Homo sapiens) (UniProt P21728); test: HTS Assay for Allosteric Agonists of the Human D1 Dopamine Receptor: Primary Screen for Antagonists (AID 488983); details: D1 receptor cell assay, antagonist mode, qHTS titration; activity change, negative = inhibition: at 41.8 µM (top of the series);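 note: calcium flux response to an EC80 dopamine challenge measured with no-wash dye; nearly all actives have a fitted effect of over 65% in size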
# In short: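 Tetracycline-induced HEK293 T-REx D1 line, force-coupled to calcium flux, read with no-wash calcium dye. Compound added after 10 s baseline, read 180 s for agonism, then EC80 dopamine added and read a further 180 s.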
# [12] = Primary qHTS for inhibitors of nuclear receptor binding SET domain protein 2 (NSD2) in an RCH-ACV wild type WT cells (2C) (AID 1645877); details: activity change, negative = cell killing: at 44.9 µM (top of the series) unless noted; note: nearly all actives have a fitted effect of over 70% in size
# [13] = molecular target: Phospholipid hydroperoxide glutathione peroxidase GPX4 (Homo sapiens) (UniProt P36969); test: Primary qHTS Assay for Inhibitors of Recombinant Selenoprotein Glutathione Peroxidase 4 (GPX4) (AID 1845192); details: activity change, negative = inhibition: at 50 µM (top of the series) unless noted; note: nearly all actives have a fitted effect of over 65% in size
# In short: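 NADPH consumption, followed by fluorescence at 340/450 nm between 0 and 15 min, reports GPX4 activity via coupled glutathione reductase (100 nM). Enzyme 200 nM was pre-exposed to compound 30 min; 0.5 mM cumene hydroperoxide and 1 mM GSH served as substrates.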
# [14] = qHTS for differential inhibitors of proliferation of Plasmodium falciparum line 7G8 (AID 1815);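 note: parasite growth measured after three days of incubation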;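 for activity change, negative = inhibition: plate controls were vehicle wells for no effect and reference inhibitor wells for full effect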
# [15] = molecular target: Glutaminase kidney isoform, mitochondrial (Homo sapiens) (UniProt O94925); test: qHTS for Inhibitors of Glutaminase (GLS): LOPAC Validation (AID 624146); note: nearly all actives have a fitted effect of over 60% in size;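 for activity change, negative = inhibition: glutamate product detected by oxidase and peroxidase coupled Amplex red fluorescence gain; % is set by controls: 0 for no effect and ±100 for the full control effect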
# In short: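 hKGA in 45 mM KH2PO4 (pH 8.2), 0.02% Tween-20 with compound, then 1mM L-Glutamine (stock as added) plus glutamate oxidase/HRP/Amplex red coupling mix. Fluorescence read initially and after 30 min at RT; signal change reflects glutamate formation.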
# [16] = qHTS for differential inhibitors of proliferation of Plasmodium falciparum line GB4 (AID 1816); details: Potency: Plasmodium falciparum GB4 proliferation inhibition;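 note: parasite growth measured after 72 h incubation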;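 for activity change, negative = inhibition: 0% = vehicle DMSO and -100% = reference inhibitor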
# [17] = molecular target: Chromobox protein homolog 1 (Homo sapiens) (UniProt P83916); test: qHTS Validation Assay for Inhibitors of HP1-beta Chromodomain Interactions with Methylated Histone Tails (AID 488953); note: nearly all actives have a fitted effect of over 50% in size
# In short: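 HP1-beta (50 nM) preformed 30 min with biotinylated H3(1-18)K9me3 peptide (50 nM) in PBS pH 7.4, 0.01% Tween-20. Compounds added for 30 min at room temperature. Complex disruption read by AlphaScreen with streptavidin donor/nickel chelate acceptor beads (10 ug/mL each).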
# [18] = molecular target: N-terminal Xaa-Pro-Lys N-methyltransferase 1 (Homo sapiens) (UniProt Q9BV86); test: qHTS Assay for Inhibitors of N-terminal methyltransferase 1 (NTMT1): LOPAC validation of the NTMT1 SAHH-coupled ThioGlo3 Assay (AID 1347143);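 note: SAH from peptide methylation measured as thiol fluorescence via SAHH coupling and ThioGlo3; nearly all actives have a fitted effect of over 70% in size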; for activity change, negative = inhibition: % is set by controls: 0 for no effect and ±100 for the full control effect
# In short: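 Inhibition of NTMT1 methylation of peptide SPKRIA is followed by converting SAH with SAHH and labelling the released thiol with ThioGlo3. Plates are read at 340/450nm before and 30 min after reagent addition, both at room temperature.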
# [19] = qHTS Assay for Identifying Gametocytocidal Compounds (AID 743244);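 for max response: % is set by controls: 0 for no effect and ±100 for the full control effect; actives lower the fluorescent signal which means gametocytes are killed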; details: P. falciparum 3D7 stage III-V gametocytes, alamarBlue, 72 h; max response: stronger effect = lower value
# In short: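 Stage III-V P. falciparum 3D7 gametocytes, 20,000 per well, were exposed to compounds for 72 h at 37C, 5% CO2. AlamarBlue was then added for 24 h and viability was read as fluorescence at Ex 525/Em 598 nm.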
# [20] = qHTS for differential inhibitors of proliferation of Plasmodium falciparum line 3D7 (AID 1876)
# Potency is the fitted concentration of half-maximal effect; tags give direction and shape of the fitted curve or compound fluorescence and quenching.
# Sequence of UniProt P08482 (P08482 whole entry, looked up): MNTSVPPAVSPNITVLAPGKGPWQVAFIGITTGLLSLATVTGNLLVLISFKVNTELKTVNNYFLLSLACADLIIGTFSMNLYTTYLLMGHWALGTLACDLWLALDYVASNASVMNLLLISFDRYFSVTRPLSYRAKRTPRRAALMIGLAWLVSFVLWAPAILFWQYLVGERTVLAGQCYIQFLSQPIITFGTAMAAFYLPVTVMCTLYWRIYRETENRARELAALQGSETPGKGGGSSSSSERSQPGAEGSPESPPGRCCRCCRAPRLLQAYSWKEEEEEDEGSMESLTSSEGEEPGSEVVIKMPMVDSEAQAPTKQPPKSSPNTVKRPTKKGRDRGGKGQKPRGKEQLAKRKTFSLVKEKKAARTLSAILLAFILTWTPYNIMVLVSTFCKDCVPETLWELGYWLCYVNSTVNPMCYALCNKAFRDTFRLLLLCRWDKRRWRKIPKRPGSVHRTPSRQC
# Sequence of UniProt O89049 (O89049 whole entry, looked up): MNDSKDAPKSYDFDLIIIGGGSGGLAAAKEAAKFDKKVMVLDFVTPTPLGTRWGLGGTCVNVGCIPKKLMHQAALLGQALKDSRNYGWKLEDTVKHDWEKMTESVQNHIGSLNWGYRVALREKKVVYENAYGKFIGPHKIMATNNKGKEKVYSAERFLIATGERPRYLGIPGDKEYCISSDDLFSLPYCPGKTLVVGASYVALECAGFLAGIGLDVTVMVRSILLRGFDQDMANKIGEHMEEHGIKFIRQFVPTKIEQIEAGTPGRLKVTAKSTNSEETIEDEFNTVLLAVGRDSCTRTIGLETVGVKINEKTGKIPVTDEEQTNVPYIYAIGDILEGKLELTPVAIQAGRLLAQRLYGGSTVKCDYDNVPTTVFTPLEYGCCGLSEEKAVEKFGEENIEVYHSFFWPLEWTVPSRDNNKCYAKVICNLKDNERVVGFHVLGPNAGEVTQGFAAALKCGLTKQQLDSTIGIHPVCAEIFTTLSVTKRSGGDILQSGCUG
# Sequence of UniProt P21728 (P21728 whole entry, looked up): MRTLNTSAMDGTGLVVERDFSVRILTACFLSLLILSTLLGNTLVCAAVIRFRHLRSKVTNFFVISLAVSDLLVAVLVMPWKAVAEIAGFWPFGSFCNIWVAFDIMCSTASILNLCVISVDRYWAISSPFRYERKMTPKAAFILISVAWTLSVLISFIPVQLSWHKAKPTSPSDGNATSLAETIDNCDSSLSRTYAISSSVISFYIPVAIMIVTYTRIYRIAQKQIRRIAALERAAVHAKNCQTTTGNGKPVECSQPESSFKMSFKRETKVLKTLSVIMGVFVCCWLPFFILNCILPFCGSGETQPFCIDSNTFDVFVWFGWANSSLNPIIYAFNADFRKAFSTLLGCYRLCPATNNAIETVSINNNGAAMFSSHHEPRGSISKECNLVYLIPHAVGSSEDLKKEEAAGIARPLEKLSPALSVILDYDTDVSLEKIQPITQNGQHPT
# Sequence of UniProt O94925 (O94925 whole entry, looked up, canonical isoform): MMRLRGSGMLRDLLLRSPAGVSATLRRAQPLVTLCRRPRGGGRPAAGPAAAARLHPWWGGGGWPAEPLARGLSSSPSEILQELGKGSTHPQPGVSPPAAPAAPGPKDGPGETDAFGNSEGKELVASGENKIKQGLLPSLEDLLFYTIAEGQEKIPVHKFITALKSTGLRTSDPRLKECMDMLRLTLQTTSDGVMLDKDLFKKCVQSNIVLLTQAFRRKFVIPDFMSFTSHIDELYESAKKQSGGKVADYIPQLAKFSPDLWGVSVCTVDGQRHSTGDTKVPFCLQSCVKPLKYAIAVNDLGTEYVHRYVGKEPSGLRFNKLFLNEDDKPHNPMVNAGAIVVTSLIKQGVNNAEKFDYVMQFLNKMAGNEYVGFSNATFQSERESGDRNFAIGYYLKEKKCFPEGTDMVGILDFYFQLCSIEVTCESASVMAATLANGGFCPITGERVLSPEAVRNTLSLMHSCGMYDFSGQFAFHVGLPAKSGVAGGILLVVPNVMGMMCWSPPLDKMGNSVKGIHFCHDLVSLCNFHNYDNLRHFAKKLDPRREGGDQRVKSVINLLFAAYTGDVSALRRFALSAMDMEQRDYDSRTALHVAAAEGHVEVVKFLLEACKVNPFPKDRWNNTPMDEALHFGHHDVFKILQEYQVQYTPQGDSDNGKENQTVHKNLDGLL
# Sequence of UniProt P83916 (P83916 whole entry, looked up): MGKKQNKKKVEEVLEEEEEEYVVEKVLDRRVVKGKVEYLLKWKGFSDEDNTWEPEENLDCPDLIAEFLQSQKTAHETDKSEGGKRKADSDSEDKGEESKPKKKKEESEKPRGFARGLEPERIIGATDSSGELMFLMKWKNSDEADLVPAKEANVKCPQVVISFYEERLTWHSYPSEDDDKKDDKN
# Sequence of UniProt Q13526 (Q13526 whole entry, looked up): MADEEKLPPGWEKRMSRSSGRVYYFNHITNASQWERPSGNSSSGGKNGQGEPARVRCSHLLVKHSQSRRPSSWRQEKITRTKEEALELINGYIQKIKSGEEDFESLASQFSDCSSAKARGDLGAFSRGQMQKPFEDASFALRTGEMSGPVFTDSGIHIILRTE
# Sequence of UniProt P00784 (P00784 whole entry, looked up): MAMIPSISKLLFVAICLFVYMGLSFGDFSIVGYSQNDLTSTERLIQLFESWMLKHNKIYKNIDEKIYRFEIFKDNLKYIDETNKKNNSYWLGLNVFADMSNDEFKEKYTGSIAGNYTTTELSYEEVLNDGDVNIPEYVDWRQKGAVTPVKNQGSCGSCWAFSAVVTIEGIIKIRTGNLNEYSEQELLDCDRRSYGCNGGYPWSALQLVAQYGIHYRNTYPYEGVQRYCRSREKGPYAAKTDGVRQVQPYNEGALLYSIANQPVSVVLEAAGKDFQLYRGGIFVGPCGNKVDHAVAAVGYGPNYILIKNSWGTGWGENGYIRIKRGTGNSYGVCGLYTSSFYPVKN
# Sequence of UniProt Q9BV86 (Q9BV86 whole entry, looked up): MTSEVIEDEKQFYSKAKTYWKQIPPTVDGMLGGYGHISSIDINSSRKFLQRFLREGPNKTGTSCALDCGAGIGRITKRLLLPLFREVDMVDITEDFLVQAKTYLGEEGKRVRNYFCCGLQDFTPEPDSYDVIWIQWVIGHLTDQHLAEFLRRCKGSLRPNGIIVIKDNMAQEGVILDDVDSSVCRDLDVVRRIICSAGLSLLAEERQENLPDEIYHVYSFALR
# Sequence of UniProt P02791 (P02791 whole entry, looked up): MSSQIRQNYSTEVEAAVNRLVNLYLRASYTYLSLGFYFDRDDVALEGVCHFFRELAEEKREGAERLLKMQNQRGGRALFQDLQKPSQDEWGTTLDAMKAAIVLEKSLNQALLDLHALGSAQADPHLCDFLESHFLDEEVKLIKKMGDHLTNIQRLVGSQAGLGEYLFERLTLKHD
# Sequence of UniProt P36969 (P36969 whole entry, looked up): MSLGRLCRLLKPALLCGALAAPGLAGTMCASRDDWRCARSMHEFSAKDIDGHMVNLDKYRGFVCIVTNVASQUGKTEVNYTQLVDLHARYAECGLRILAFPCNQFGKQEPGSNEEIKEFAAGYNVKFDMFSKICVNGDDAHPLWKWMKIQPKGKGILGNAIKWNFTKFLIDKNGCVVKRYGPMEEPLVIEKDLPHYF
smiles,measurement,setting,value
OCC1O[C@H]([S-])[C@H](O)[C@@H](O)[C@@H]1O.[Au+] (stereo not given in full),Potency,[1],active: 0.0752 µM
same,Potency,[2],active: 4.26 µM
same,Potency,[3],"inconclusive: 14.1 µM [inhibitor, partial curve]"
CC[C@@H](C)[C@H]1O[C@]2(CC[C@H]1C)C[C@@H]1C[C@@H](CC=C(C)[C@@H](O[C@H]3C[C@H](OC)[C@@H](O[C@H]4C[C@H](OC)[C@@H](O)[C@H](C)O4)[C@H](C)O3)[C@@H](C)C=CC=C3CO[C@@H]4[C@H](O)C(C)=C[C@@H](C(=O)O1)[C@]34O)O2,Potency,[4],"inconclusive: 26.1 µM [falling, single point]"
O=C1Nc2ccc(I)cc2/C1=C/c1cc(Br)c(O)c(Br)c1,Potency,[5],active: 8.91 µM
same,"activity change, negative = inhibition",[6],inconclusive: -7.03% [phenotype inactive]
same,Potency,[7],"inconclusive: 25.1 µM [inhibitor, partial curve, poor fit]"
same,Potency,[8],"inconclusive: 10 µM [inhibitor, partial curve]"
same,Potency,[9],"inconclusive: 15.8 µM [inhibitor, single point]"
same,Potency,[10],"inconclusive: 31.6 µM [inhibitor, partial curve]"
same,Potency,[1],"inconclusive: 23.8 µM [inhibitor, single point]"
same,Potency,[11],"inconclusive: 31.6 µM [inhibitor, single point]"
same,Potency,[2],"inconclusive: 10.7 µM [fluorescent, side channel, partial curve]"
same,Potency,[12],"inconclusive: 29.1 µM [inhibitor, single point]"
same,Potency,[13],"inconclusive: 5.08 µM [inhibitor, full curve]"
NC(=Nc1ccccc1)NC(=O)c1nc(Cl)c(N)nc1N,Potency,[5],active: 7.94 µM
same,Potency,[6],"inconclusive: 2.51 µM [activator, full curve]"
same,Potency,[7],"inconclusive: 7.94 µM [inhibitor, full curve, poor fit]"
same,Potency,[14],active: 8.91 µM
same,Potency,[11],active: 12.6 µM
same,Potency,[15],inactive
O=C(O)/C(=C/c1c(C(=O)O)[nH]c2cc(Cl)cc(Cl)c12)c1ccccc1,Potency,[5],inactive
same,"activity change, negative = inhibition",[6],inconclusive: 2.08% [phenotype inactive]
same,Potency,[14],"inconclusive: 7.08 µM [inhibitor, partial curve]"
same,Potency,[16],"inconclusive: 17.8 µM [inhibitor, single point]"
same,Potency,[17],"inconclusive: 63.1 µM [inhibitor, partial curve]"
same,Potency,[15],"inconclusive: 3.98 µM [inhibitor, full curve]"
same,Potency,[3],"inconclusive: 20 µM [inhibitor, single point]"
O=C(O)C1CN(CCCP(=O)(O)O)CCN1 (stereo not given),Potency,[2],"inconclusive: 0.849 µM [falling, partial curve, poor fit]"
O=c1[nH]ccc2c(O)cccc12,Potency,[5],inactive
same,"activity change, negative = inhibition",[6],inconclusive: 2.82% [phenotype inactive]
same,Potency,[7],inactive
same,Potency,[14],inactive
same,Potency,[1],inactive
same,Potency,[2],"inconclusive: 37.9 µM [falling, single point]"
same,Potency,[15],"inconclusive: 8.91 µM [inhibitor, partial curve, poor fit]"
CC1(C)CCC(NC(=O)[C@@H](N)CCC(=O)O)CC1,Potency,[16],inactive
same,Potency,[18],inactive
O=C(CCCCCN1CCN(c2ccccc2-c2ccccc2)CC1)NC1CCCc2ccccc21 (stereo not given),Potency,[17],"inconclusive: 25.1 µM [inhibitor, partial curve]"
same,Potency,[11],active: 7.08 µM
same,Potency,[19],"inconclusive: 6.31 µM [inhibitor, single point]"
O=C(O)c1cc(=O)c2ccccc2[nH]1,"activity change, negative = inhibition",[5],inconclusive: 5.95%
same,"activity change, negative = inhibition",[6],inconclusive: -15.7% [phenotype inactive]
same,Potency,[1],inactive
same,max response,[19],inactive: -5.82%
same,Potency,[18],"inconclusive: 56.2 µM [inhibitor, partial curve]"
COc1cccc(OC)c1OCCNCC1COc2ccccc2O1 (stereo not given),Potency,[14],active: 7.94 µM
same,Potency,[16],"inconclusive: 5.01 µM [inhibitor, partial curve]"
same,Potency,[20],"inconclusive: 14.1 µM [inhibitor, single point]"
same,Potency,[8],"inconclusive: 12.6 µM [inhibitor, single point]"
same,Potency,[9],"inconclusive: 6.31 µM [inhibitor, partial curve]"
same,Potency,[11],active: 0.316 µM
same,Potency,[15],inactive
C=C1C[C@@]23CC[C@H]4[C@@](C)(CCC[C@@]4(C)C(=O)OC4OC(CO)C(O)C(O)C4O)[C@@H]2CC[C@]1(OC1OC(CO)C(O)C(O)C1OC1OC(CO)C(O)C(O)C1O)C3 (stereo not given in full),Potency,[17],active: 0.006 µM
same,Potency,[19],"inconclusive: 3.16 µM [inhibitor, single point]"

# Source: PubChem BioAssay (NCATS)
